Measurements taken from PubChem BioAssay AID624202 (National Center for Advancing Translational Sciences (NCATS), 2012).
Screen size: about 380,000 compounds; about 4,000 (1.1%) were called active. Inconclusive means that the source gave no clear call. Such entries were picked first, then a sample of the others. Calls follow the shape of the dose curve; as a rule, active = well fitted activation curve with a large enough effect; inconclusive = small, poorly fitted or top-dose-only effect; inactive = no such curve, though single readings can be large or run the other way. A potency beside an inconclusive call is a rough fit, not a confirmed value.
Potency is read from the fitted curve at half-maximal effect; tags tell the direction and shape of the fitted curve.

Experiment: qHTS Assay to Identify Small Molecule Activators of BRCA1 Expression; also: nearly all actives have a fitted effect of over 80% in size
Settings: MCF7-BRCA1-FFLuc reporter, luminescence, 48 h; activation: at 46.1 µM (top of the series), scaled: vehicle 0%, 10 µM genistein 100% unless noted
How it was run: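 MCF7-BRCA1-FFLuc, 2000 cells/well; 2 h attach, 37 °C/5% CO2; compound 48 h; luciferase substrate 15 min; luminescence end-point. Norm. to genistein 10 microM max activation and DMSO; concentration-response curves fitted.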
With O=C(COCc1cc(-c2ccc3c(c2)OCO3)on1)N1CCCCC1 the Potency was inconclusive: 20 µM [activator, partial curve, poor fit]. With Cc1cccc(Nc2ncnc3ccccc23)c1 the Potency was inconclusive: 10 µM [activator, partial curve, poor fit]. With COc1ccc(OCc2cc(C(=O)NC(C)c3csc(C)n3)no2)c(Cl)c1 (stereo not given) the Potency was inconclusive: 35.5 µM [activator, single point]. For O=C(N/N=C\c1cccc(Cl)c1)c1n[nH]c2c1CCCC2, the Potency was inconclusive: 1.78 µM [activator, full curve, poor fit]. For CCOC(=O)N1CCC(NC(=O)c2ccc3c(c2)N(Cc2ccc(F)cc2)C(=O)c2ccccc2S3=O)CC1 (stereo not given), the “activation” value was inactive: -48.5%. In the case of O=C(c1ccco1)N1CCN(C(=O)c2ccc(-c3ccccc3Cl)o2)CC1, the Potency is reported as active: 8.91 µM. With Nc1[nH]nc2nc(N3CCCC3)nc(-c3ccccc3)c12 the “activation” value was inactive: 2.45%. With Cc1cccc(-c2nc(C#N)c(NC3CCCCC3)o2)c1 the Potency was active: 3.16 µM. With O=C(CSc1nnc(C2CCCCC2)o1)N1CCCCC1 the Potency was inconclusive: 11.2 µM [activator, partial curve, poor fit]. In the case of O=C(Cc1ccccc1)Nc1nc2ccccc2s1, the Potency is reported as active: 10 µM. For O=c1c2c3c(sc2nc2n1CCCC2)CCCCC3, the Potency was inconclusive: 12.6 µM [activator, partial curve, poor fit]. In the case of OCCOCCOc1ccc(-c2nn[nH]n2)cc1, the “activation” value is reported as inactive: 0%. In the case of CC1(C)Cc2c(cnn2-c2ccc(F)cc2)C(NC(=O)C2=NNC(=O)CC2)C1 (stereo not given), the “activation” value is reported as inactive: 50.8%. With O=[N+]([O-])c1ccc(/C=C2\C=Cc3ccccc32)cc1 the “activation” value was inactive: 42.4%. For CCOc1ccc(NC(c2ccccn2)c2oc(CO)cc(=O)c2O)cc1 (stereo not given), the Potency was inconclusive: 8.91 µM [activator, partial curve, poor fit]. For CCOc1ccc(NC(=S)Nc2cccc3cnccc23)cc1, the “activation” value was inactive: -26.3%. For Cc1ccc(OCCOc2cccc(Br)c2)c([N+](=O)[O-])n1, the Potency was inconclusive: 12.6 µM [activator, partial curve, poor fit]. For CC1CCCCN1Cc1c(O)ccc2c(=O)c(-c3ccc(Cl)cc3)coc12 (stereo not given), the Potency was active: 10 µM. With Cc1ccc2nc(COc3ccc(Cl)cc3)cc(=O)n2c1 the Potency was inconclusive: 7.08 µM [activator, partial curve, poor fit]. For O=C(Nc1ccc2nc(-c3ccccc3)oc2c1)c1ccco1, the Potency was inconclusive: 15.8 µM [activator, partial curve, poor fit]. For O=C(c1ccc(F)cc1)c1cnc(Nc2ccccc2)s1, the Potency was active: 2 µM. For CCCN1C/C(=C/c2cccc([N+](=O)[O-])c2)C(=O)/C(=C/c2cccc([N+](=O)[O-])c2)C1, the “activation” value was inactive: -83.7%. With COC(=O)c1cccc(N2C(=O)c3cccnc3C2=O)c1 the Potency was inconclusive: 31.6 µM [activator, single point]. With O=c1c2cnn(-c3ccccc3)c2ncn1CCc1ccccc1 the Potency was inconclusive: 12.6 µM [activator, partial curve, poor fit]. For C[N+]1(CC(=O)c2ccc3ccccc3c2)CCOCC1, the “activation” value was inactive: 0%. For Cn1cccc1CNC(=O)Nc1ccccc1, the Potency was inconclusive: 3.16 µM [activator, partial curve, poor fit]. For CC(=O)c1ccc(OCc2cc(C(=O)N3CCC(Oc4ccccc4C)CC3)no2)cc1, the Potency was inconclusive: 11.2 µM [activator, partial curve, poor fit]. With Clc1ccc(-c2ccc(CNCC3CCCO3)o2)cc1 (stereo not given) the Potency was active: 10 µM. In the case of O=C(CSc1nnnn1-c1ccccc1)NC(=O)Nc1ccc2c(c1)OCCO2, the Potency is reported as inconclusive: 11.2 µM [activator, partial curve, poor fit]. With CCC(=O)Nc1ccc2c(c1)Cc1cc([N+](=O)[O-])ccc1-2 the Potency was inconclusive: 2.51 µM [activator, full curve, poor fit]. With N#Cc1ccc(C(=O)NC2=NCCS2)cc1 the Potency was inconclusive: 10 µM [activator, partial curve, poor fit]. For COC(=O)c1ccc(NC(=S)Nc2ccccn2)cc1, the “activation” value was inactive: 93%. In the case of CC(=O)Nc1ccc(S(=O)(=O)NCCC(=O)Nc2cccc(Cl)c2)cc1, the “activation” value is reported as inactive: -20.7%. For COc1cc(NC(=O)c2cc3cccc(OC)c3o2)cc(C(=O)Nc2cccc(C(F)(F)F)c2)c1, the “activation” value was inactive: -42.3%. With COC(=O)C12OCC34C(CC5C(C)=C(O)C(=O)CC5(C)C3C(O)C1O)OC(=O)C(OC(=O)C=C(C)C)C24 (stereo not given) the activation was inconclusive: -95.1% [activator]. For O=C(/C=C/c1ccco1)Nc1ccc(Oc2ccccc2)cc1, the Potency was inconclusive: 1.58 µM [activator, partial curve, poor fit]. In the case of O=C(/C=C/Nc1ccc([N+](=O)[O-])cc1Br)c1cccc2ccccc12, the Potency is reported as inconclusive: 0.355 µM [activator, full curve, poor fit]. For COc1ccc(N(C)S(=O)(=O)c2cccc(C(=O)Nc3nc(C)cs3)c2)cc1, the “activation” value was inactive: 1.03%. In the case of COc1cccc(/C=C/c2ccncc2)c1OC, the “activation” value is reported as inactive: 3.12%. With COC(=O)c1cnn(-c2ccc(F)cc2F)c1/C=N/NC(=S)NC(C)(C)C the “activation” value was inactive: -36.4%. For COc1cc2c(cc1OC)-c1cc(=Nc3c(C)cc(C)cc3C)n(C)c(=O)n1CC2, the “activation” value was inactive: 0%. In the case of CCOc1ccc(OCc2ccc(C(=O)NC(C)C)o2)cc1, the Potency is reported as inconclusive: 2 µM [activator, partial curve, poor fit]. With OCCCn1c(CCCNc2nc(-c3cccc(Br)c3)cs2)nc2cc(Cl)c(N3CCCCC3)cc21 the “activation” value was inactive: -40.5%. In the case of CCOC(=O)N1N=C(c2ccccc2)CC1(O)C(F)(F)F (stereo not given), the Potency is reported as inconclusive: 15.8 µM [activator, partial curve, poor fit]. In the case of COc1ccc(C=Nc2cccnc2N)cc1, the Potency is reported as inconclusive: 35.5 µM [activator, single point]. For O=C(c1cc([N+](=O)[O-])ccc1N1CCOCC1)N1CCCCC1, the “activation” value was inactive: 27.8%. For CC(=O)NCCC1CCCCN1C(=O)c1cc(COc2cc(C)ccc2C)on1 (stereo not given), the Potency was active: 7.08 µM. In the case of CC(=O)Nc1ccc(-c2csc(NCc3ccco3)n2)cc1, the Potency is reported as inconclusive: 3.16 µM [activator, full curve, poor fit]. With O=C(Nc1ccccn1)c1ccc(Br)s1 the Potency was inconclusive: 7.08 µM [activator, partial curve, poor fit]. For Cc1ccc(Cn2ccc(NC(=O)c3noc4c3CCCC4)n2)cc1, the Potency was active: 5.62 µM. With COc1ccccc1CCCNC(=O)C1CCC(=O)N(Cc2ccccc2F)C1 (stereo not given) the Potency was inconclusive: 15.8 µM [activator, partial curve, poor fit]. With O=C(Nc1ccc2ccccc2c1)c1onc2c1CCCC2 the activation was inconclusive: -30% [activator]. In the case of CC(=O)N(CCN(C)C)c1nc2cc3c(cc2s1)OCCO3, the Potency is reported as inconclusive: 1.26 µM [activator, partial curve, poor fit]. In the case of Cc1nc(NC(=O)c2ccc(Br)o2)sc1C, the Potency is reported as inconclusive: 2 µM [activator, partial curve, poor fit]. In the case of Cc1cccnc1NC(=O)/C=C/c1ccc2c(c1)OCO2, the Potency is reported as inconclusive: 3.98 µM [activator, partial curve, poor fit]. With Cc1ccc(NC(=S)Nc2cc(C)on2)cc1 the Potency was inconclusive: 2.82 µM [activator, full curve, poor fit]. With CC(C)OCCCN(Cc1ccco1)C(=O)c1cc2c(s1)-c1ccccc1OC2 the “activation” value was inactive: -40.4%. In the case of Cc1ccc(-c2c(C)sc(=NC(=O)c3ccco3)n2C)cc1, the Potency is reported as inconclusive: 2.51 µM [activator, full curve, poor fit]. For Cc1csc(NC(=O)c2cc3ccccc3o2)n1, the “activation” value was inactive: 57.4%. In the case of Cc1ccc(-c2nc3ccccc3n2C)o1, the Potency is reported as inconclusive: 1.26 µM [activator, full curve, poor fit]. With O=C(O)c1cnn(-c2nc(-c3ccc(Br)cc3)cs2)c1C(F)(F)F the Potency was active: 5.01 µM. In the case of COc1cccc(C(=O)O/N=C(\N)c2ccc([N+](=O)[O-])cc2)c1OC, the Potency is reported as inconclusive: 3.16 µM [activator, full curve, poor fit]. For COc1ccc(NC(=O)CN(C)C(=O)c2cccc(S(=O)(=O)N3CC4(C)CC3CC(C)(C)C4)c2)cc1 (stereo not given), the “activation” value was inactive: -32.2%. In the case of Cc1cccc(NC(=O)c2cnn3ccccc23)c1C, the Potency is reported as active: 12.6 µM. With COc1cccc(/C=C/C(=O)Nc2cccc(C(C)=O)c2)c1OC the Potency was inconclusive: 8.91 µM [activator, partial curve, poor fit]. With Fc1ccccc1-c1nc(-c2ccc(Br)o2)no1 the Potency was inconclusive: 1.41 µM [activator, full curve, poor fit]. In the case of CCCCCC(=O)c1ccc(O)cc1O, the Potency is reported as inconclusive: 17.8 µM [activator, partial curve, poor fit]. In the case of CC(=O)c1cc(C#N)c(SCC(=O)OC(C)(C)C)nc1C, the Potency is reported as active: 5.62 µM. For C=C(C)C(=O)Nc1cccc(C2=NOC3(C2)C[C@H](C(N)=O)N(C(=O)c2ccccc2)C3)c1 (stereo not given in full), the “activation” value was inactive: 0%. For Cc1ccc(C(=O)NCCCc2ccccc2)s1, the Potency was inconclusive: 11.2 µM [activator, partial curve, poor fit]. With COc1ccc(-c2cn3cccnc3n2)cc1F the Potency was inconclusive: 15.8 µM [activator, partial curve, poor fit]. For COc1ccc(N(C(=O)Cn2cnc3ccccc32)C(C(=O)NC2CCCCC2)c2ccccc2)cc1 (stereo not given), the “activation” value was inactive: -13.7%. For COc1ccccc1/C=N/Nc1nccnc1Cl, the Potency was active: 11.2 µM. In the case of CCOC(=O)c1noc2ncnc(Nc3ccc(C)c(F)c3)c12, the “activation” value is reported as inactive: 6.35%. With CCC(C)NC(=O)CCC(=O)Nc1ccc2nc(N3CCOCC3)cc(C)c2c1 (stereo not given) the Potency was inconclusive: 10 µM [activator, partial curve, poor fit].
